Experimental findings from a collection of fitness landscapes (doi:10.1126/science.1257360) are described below.

The chains are these.
B1: PhoQ; a variant is named by its letters at X, in order, P23837 (parent)
chain: MKKLLRLFFPLSLRVRFLLATAAVVLVLSLAYGMVALIGYSVSFDKTTFRLLRGESNLFYTLAKWENNKLHVELPENIDKQSPTMTLIYDENGQLLWAQRDVPWLMKMIQPDWLKSNGFHEIEADVNDTSLLLSGDHSIQQQLQEVREDDDDAEMTHSVAVNVYPATSRMPKLTIVVVDTIPVELKSSYMVWSWFIYVLSANLLLVIPLLWVAAWWSLRPIEALAKEVRELEEHNRELLNPATTRELTSLVRNLNRLLKSERERYDKYRTTLTDLTHSLKTPLXXLQXXLRSLRSEKMSVSDAEPVMLEQISRISQQIGYYLHRASMRGGTLLSRELHPVAPLLDNLTSALNKVYQRKGVNISLDISPEISFVGEQNDFVEVMGNVLDNACKYCLEFVEISARQTDEHLYIVVEDDGPGIPLSKREVIFDRGQRVDTLRPGQGVGLAVAREITEQYEGKIVAGESMLGGARMEVIFGRQHSAPKDE

The other results are listed elsewhere or left out.

In the assay the parent is B1. Description: enrichment ratio after two sorts for PhoP signalling (ratio (wild type AVST 3.29)); higher = more functional. The note with it: with PhoP (E. coli).
Regarding FGNM, the enrichment ratio was at most 0.25. Take RKFM: the enrichment ratio was at most 0.25.

For LSYS, the enrichment ratio is at most 0.25. The value for HNNK was at most 0.25.

Regarding ISSE, the enrichment ratio was at most 0.25. For the variant EHTW, the enrichment ratio was at most 0.25.

For FNQS, the enrichment ratio is at most 0.25. As for TPFF, the enrichment ratio turned out to be 0.583. With PLEW, the enrichment ratio is at most 0.25. As to SNNQ, the enrichment ratio turned out to be 4.35.

Regarding AIYY, the enrichment ratio is at most 0.25. Regarding KKAH, the enrichment ratio was at most 0.25. AARG: the enrichment ratio is at most 0.25. On to GYQA, for which the enrichment ratio was at most 0.25. For the variant YPHQ, the enrichment ratio was at most 0.25. SYPG: the enrichment ratio was at most 0.25. As for TFIS, the enrichment ratio was at most 0.25. Turning to AGID, the enrichment ratio is at most 0.25. The figure for LADW is at most 0.25; for GMHM it is at most 0.25. SRMK: the enrichment ratio is at most 0.25. As to HHLG, the enrichment ratio is at most 0.25. The figure for FEQH is at most 0.25; for FQWN it is at most 0.25. As to WCNW, the enrichment ratio is at most 0.25. TMIL: the enrichment ratio is at most 0.25. For the variant ILRP, the enrichment ratio was at most 0.25. For the variant FFHN, the enrichment ratio is at most 0.25.

On to SVFI, for which the enrichment ratio was at most 0.25. On to LARL, for which the enrichment ratio is at most 0.25. On to DDMP, for which the enrichment ratio is at most 0.25. YGAT: the enrichment ratio was determined as 0.272. For GERH, the enrichment ratio is at most 0.25.

DFAQ: the enrichment ratio is at most 0.25. In the case of VPQL, the enrichment ratio was at most 0.25. On to FPEL, for which the enrichment ratio was at most 0.25. On to SDAR, for which the enrichment ratio is at most 0.25.

On to HSDD, for which the enrichment ratio is at most 0.25. Take NKFT: the enrichment ratio is at most 0.25.

For the variant HYCP, the enrichment ratio was at most 0.25. Take VCLY: the enrichment ratio was at most 0.25.

For the variant VYSY, the enrichment ratio is at most 0.25. For PCLP, the enrichment ratio was at most 0.25.

TTDQ: the enrichment ratio is at most 0.25. For the variant FTYE, the enrichment ratio was at most 0.25. For the variant FQQI, the enrichment ratio is at most 0.25. In the case of LQTF, the enrichment ratio is at most 0.25. For the variant RCPF, the enrichment ratio was at most 0.25. Turning to HCTG, the enrichment ratio was at most 0.25.

As to RLCT, the enrichment ratio is at most 0.25. Turning to WTPV, the enrichment ratio was at most 0.25.

In the case of PQVQ, the enrichment ratio is at most 0.25. With SCIY, the enrichment ratio came to 2.52. As to VRPW, the enrichment ratio is at most 0.25. The figure for FKIF is at most 0.25; for FHYM it is at most 0.25. Regarding AEHG, the enrichment ratio is at most 0.25.

On to MSEN, for which the enrichment ratio was at most 0.25. For the variant KSIL, the enrichment ratio is at most 0.25. Consider RMRI, for which the enrichment ratio was at most 0.25. DDHG: the enrichment ratio is at most 0.25. In the case of NMGM, the enrichment ratio was at most 0.25. The figure for WQSA is at most 0.25; for PLNF it is at most 0.25; for GQCA it is 0.713. For TYYT, the enrichment ratio was at most 0.25.

With VRLT, the enrichment ratio is at most 0.25. The value for SKIH was 2.53; that for VYAH was at most 0.25. On to MFLY, for which the enrichment ratio was at most 0.25. With WPAD, the enrichment ratio was at most 0.25. Turning to YTIL, the enrichment ratio came out at 0.593. In the case of YTMH, the enrichment ratio was at most 0.25. On to PEGR, for which the enrichment ratio is at most 0.25. Take SFDM: the enrichment ratio was at most 0.25. Regarding WPWK, the enrichment ratio was at most 0.25.

Consider DWNP, for which the enrichment ratio was at most 0.25. The figure for AWTF is at most 0.25. Take SNVL: the enrichment ratio amounted to 8.74.

For the variant NKHC, the enrichment ratio is at most 0.25. For the variant IYTL, the enrichment ratio is at most 0.25.

For the variant QNVK, the enrichment ratio was at most 0.25. ASYQ: the enrichment ratio is at most 0.25. On to YGST, for which the enrichment ratio worked out at 0.384. Consider RMWA, for which the enrichment ratio is at most 0.25. The figure for GMRQ is at most 0.25; for PELM it is at most 0.25; for PESW it is at most 0.25. As to GYNL, the enrichment ratio was at most 0.25. The figure for MYDT is at most 0.25. Regarding ARTS, the enrichment ratio was at most 0.25. In the case of DYPD, the enrichment ratio was at most 0.25. In the case of FETD, the enrichment ratio was at most 0.25. Turning to VNSI, the enrichment ratio was found to be 1.97. With SMPG, the enrichment ratio was at most 0.25. On to PAMP, for which the enrichment ratio was at most 0.25. The figure for HKRK is at most 0.25; for LASW it is at most 0.25; for DLER it is at most 0.25. In the case of NDMH, the enrichment ratio was at most 0.25. As to MVMF, the enrichment ratio was determined as 0.704.

With FCGF, the enrichment ratio is at most 0.25. On to MCCE, for which the enrichment ratio is at most 0.25.

With WCFM, the enrichment ratio is at most 0.25. Take LNWF: the enrichment ratio was at most 0.25. The figure for STGG is 7.99. Take AAML: the enrichment ratio is 14.7. The figure for NVMI is at most 0.25. For the variant YPHI, the enrichment ratio is at most 0.25.

LCWH: the enrichment ratio was at most 0.25. Take QDGI: the enrichment ratio was at most 0.25. Regarding VWMN, the enrichment ratio was at most 0.25. On to TQRM, for which the enrichment ratio is at most 0.25. GNAG: the enrichment ratio came to 0.269.

On to MVTW, for which the enrichment ratio is at most 0.25. In the case of SVTW, the enrichment ratio was 8.74. As for MRDS, the enrichment ratio is at most 0.25. Take NEWP: the enrichment ratio is at most 0.25. NVCP: the enrichment ratio was at most 0.25.

Regarding KRFD, the enrichment ratio is at most 0.25. In the case of SFYP, the enrichment ratio is at most 0.25.

In the case of DFAW, the enrichment ratio is at most 0.25. Turning to MPYQ, the enrichment ratio was at most 0.25. As for TKNP, the enrichment ratio was at most 0.25. With MLDD, the enrichment ratio is at most 0.25. In the case of IALC, the enrichment ratio stood at 1.46. RNTA: the enrichment ratio was at most 0.25. For RSEQ, the enrichment ratio is at most 0.25.

Turning to HIVR, the enrichment ratio was at most 0.25.

For FFHI, the enrichment ratio is at most 0.25. The value for LAYI was 6.02. Consider FENN, for which the enrichment ratio is at most 0.25. Regarding GLML, the enrichment ratio amounted to 9.1. As for HERG, the enrichment ratio is at most 0.25.

For the variant WTTY, the enrichment ratio is at most 0.25. For the variant FIVC, the enrichment ratio is at most 0.25. Consider QRMF, for which the enrichment ratio was at most 0.25. QRTC: the enrichment ratio was at most 0.25. For LHII, the enrichment ratio was at most 0.25. As for TFAD, the enrichment ratio is at most 0.25. With DGCV, the enrichment ratio was at most 0.25.

In the case of DWKL, the enrichment ratio is at most 0.25. IQTP: the enrichment ratio is at most 0.25. The figure for MYTV is at most 0.25; for SKHA it is at most 0.25. In the case of YESN, the enrichment ratio is at most 0.25. Turning to HGDV, the enrichment ratio was at most 0.25. With MLTI, the enrichment ratio stood at 4.55.

Regarding VYVR, the enrichment ratio is at most 0.25. The value for DHCD was at most 0.25; that for IERG was at most 0.25.

Consider VDWN, for which the enrichment ratio is at most 0.25. LKRV: the enrichment ratio is at most 0.25.
